For part of these data: This list holds what a sample rich in strong results left over. The list shows a part of the results, in another mix than the full data.
Experiments:
Details in all cases: concentration: 1 μM,replicates: in singlicate; n = 1
YSK1 = test system: T1, YSK1
T1 construct: gene STK25

YSK4 = test system: T2, YSK4
T2 construct: gene MAP3K19

ZAK = test system: ZAK
ZAP70 = test system: ZAP70
p38-alpha = test system: T3, p38-alpha
T3 construct: gene MAPK14

p38-beta = test system: T4, p38-beta
T4 construct: gene MAPK11

p38-delta = test system: p38-delta
p38-gamma = test system: T5, p38-gamma
T5 construct: gene MAPK12
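Further: KINOMEscan kinase panel screen.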

SMILES | %Inh (YSK1) [%] | %Inh (YSK4) [%] | %Inh (ZAK) [%] | %Inh (ZAP70) [%] | %Inh (p38-alpha) [%] | %Inh (p38-beta) [%] | %Inh (p38-delta) [%] | %Inh (p38-gamma) [%]
O=C1NC(=O)C(c2ccccc2)=C1Nc1ccc(Cl)c(C(=O)O)c1 [SB-390532] | 0 | 49 | 16 | 41 | 38 | 0 | 47 | 11
Cc1cc(C)cc(Oc2nccc(-c3c(-c4ccc(F)cc4)ncn3C3CCNCC3)n2)c1.O=C(O)C(F)(F)F.O=C(O)C(F)(F)F.O=C(O)C(F)(F)F [SB-284851] | 0 | 0 | 15 | 1 | – | 34 | 0 | 52
CSc1ccc(NC2=C(c3cccc(Cl)c3)C(=O)NC2=O)cc1 [SB-341528] | 0 | 0 | 0 | 0 | 0 | 0 | 0 | 19
O=C1NC(=O)C(c2ccc(Cl)cc2)=C1Nc1cccc(C(=O)O)c1 [SB-360737] | 0 | 43 | 24 | 51 | 0 | 0 | 42 | 0
COc1cccc(C2=C(Nc3ccc(SC)cc3)C(=O)NC2=O)c1 [SB-331032] | 0 | 37 | 5 | 0 | 0 | 14 | 2 | 0
CS(=O)(=O)c1ccccc1-c1nc(-c2ccc(F)cc2)c(-c2ccncc2)[nH]1 [SB-213663] | 0 | 0 | 28 | 33 | 98.1 | 33 | 10 | 52
O=C1NC(=O)C(c2ccc(Cl)cc2)=C1Nc1ccc(O)c(Cl)c1 [SB-405367] | 6 | 0 | 0 | 33 | 1 | 1 | 6 | 26
O=C1NC(=O)C(c2ccccc2Cl)=C1Nc1ccccc1 [SB-376715] | 12 | 3 | 5 | 0 | 0 | 0 | 22 | 2
O=C1NC(=O)c2c1c(-c1ccccc1)cc1[nH]c3ccc(O)cc3c21 | 8 | 100 | 3 | 6 | 9 | 25 | 12 | 23
O=C1NC(=O)C(c2ccc(Cl)cc2)=C1Nc1ccccc1 [SB-317661] | 3 | 43 | 0 | 100 | 0 | 0 | 0 | 0
Cc1ccc(C)c(Oc2nccc(-c3c(-c4ccc(F)cc4)ncn3C3CCNCC3)n2)c1.O=C(O)C(F)(F)F.O=C(O)C(F)(F)F.O=C(O)C(F)(F)F [SB-284852] | 0 | 15 | 16 | 0 | – | 89 | 2 | 36
O=C1NC(=O)C(c2ccccc2Cl)=C1Nc1cccc(C(=O)O)c1 [SB-390526] | 3 | 0 | 4 | 0 | 13 | 0 | 0 | 0
O=C1NC(=O)C(c2ccccc2)=C1Nc1cc(Cl)c(O)c(Cl)c1 [SB-390530] | 0 | 0 | 0 | 0 | 0 | 4 | 7 | 0
COc1ccc(C2=C(Nc3cccc(Cl)c3)C(=O)NC2=O)cc1 [SB-326892] | 0 | 11 | 20 | 0 | 2 | 7 | 19 | 0
O=C(O)c1ccc(-c2nc(-c3ccc(F)cc3)c(-c3ccncc3)[nH]2)cc1 [SB-202620] | 30 | 12 | 37 | 0 | 100 | 97.7 | 0 | 53
O=C1NC(=O)C(c2ccc(Cl)cc2)=C1Nc1cccc(O)c1 [SB-333613] | 0 | 43 | 0 | 29 | 0 | 1 | 0 | 54

From article PMC5540273 (PLoS ONE, 2017)
